# In PubChem BioAssay AID889 (National Center for Advancing Translational Sciences (NCATS), 2007):
# Screen size: about 75,000 compounds; about 15 (0.02%) were called active. Inconclusive means that the source gave no clear call. Such entries were picked first, then a sample of the others. Calls come from the whole dose curve; as a rule, active = well fitted inhibition curve with a large enough effect in the main read-out, with a control signal flat (not every such curve was filed as active); inconclusive = small, poorly fitted or top-dose-only effect, or a change in a side signal; inactive = flat fitted curve, though single readings scatter. Potencies of inconclusive entries are doubtful fits and often do not repeat. A note “side channel” means that the fit belongs to a control or component signal, not to the main read-out.
# Target: Caspase-7 (Homo sapiens) (UniProt P55210)
# UniProt P55210, sequence (P55210 whole entry, looked up): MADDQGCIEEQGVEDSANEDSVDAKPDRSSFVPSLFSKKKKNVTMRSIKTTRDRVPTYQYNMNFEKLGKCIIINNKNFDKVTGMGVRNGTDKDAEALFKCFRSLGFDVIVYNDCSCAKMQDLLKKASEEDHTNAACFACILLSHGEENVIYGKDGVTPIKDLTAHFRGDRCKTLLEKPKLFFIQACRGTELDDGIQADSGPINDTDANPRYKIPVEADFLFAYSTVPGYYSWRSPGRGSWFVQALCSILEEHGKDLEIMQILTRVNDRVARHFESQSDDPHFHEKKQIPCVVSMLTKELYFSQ
# Assay: qHTS Assay for Allosteric/Competitive Inhibitors of Caspase-7; for activity change, negative = inhibition: % of control where 0% means no effect
# Conditions: recombinant caspase-7, Ac-DEVD-AFC fluorescence rate; activity change, negative = inhibition: at 57.5 µM (top of the series) unless noted
# Potency is the fitted concentration of half-maximal effect; tags give direction and shape of the fitted curve or compound fluorescence and quenching.
Structure (SMILES),"activity change, negative = inhibition",Potency
N#Cc1c(N)oc(-c2ccccc2)c1-c1ccccc1,inactive: 0.83% [at 0.00368 µM],–
N#CC(c1nc2ccccc2nc1N1CCCC1)S(=O)(=O)c1ccccc1 (stereo unspecified),–,"inconclusive: 12.6 µM [fluorescent, partial curve]"
Cc1ccc2nc3c(cc(C(N)=S)c(=N)n3CCCOC(C)C)c(=O)n2c1,–,"inconclusive: 12.6 µM [fluorescent, side channel, partial curve]"
Cc1cccn2c(=O)c3cc(C#N)c(=O)n(CCCN4CCOCC4)c3nc12,–,"inconclusive: 12.6 µM [fluorescent, side channel, partial curve]"
COCCN1Cc2cccc(C(=O)Nc3cc(OC)ccc3OC)c2C1=O,inactive: 0.612%,–
COc1cccc(Cn2c(=O)cnc3cnc(Oc4cccc(Cl)c4)nc32)c1,inactive: -6.22%,–
O=c1cc(-c2ccccc2)c2ccc(O)c(CN3CCCCC3)c2o1,–,"inconclusive: 3.16 µM [inhibitor, full curve]"
Cc1ccc(S(=O)(=O)c2c(N)n(C)c3nc4ccccc4nc23)cc1,–,"inconclusive: 25.1 µM [fluorescent, partial curve]"
CN(C)C[C@H]1CCC2=C(C1=O)C(c1ccc(Cl)c(Cl)c1)C1=C(CC[C@H](CN(C)C)C1=O)O2,inactive: 0.492% [at 11.5 µM],–
Cc1cc(=O)oc2cc3c(cc12)OCCN3,–,"inconclusive: 3.98 µM [fluorescent, side channel, partial curve]"
CCC(C)(C)n1nnnc1C(c1cc2ccc(OC)cc2[nH]c1=O)N1CCc2ccccc2C1 (stereo unspecified),–,"inconclusive: 12.6 µM [fluorescent, partial curve]"
COc1ccc(C2C(C(C)=O)=C(C)N=c3s/c(=C\c4cc(C)n(C)c4C)c(=O)n32)c(OC)c1 (stereo unspecified),–,"inconclusive: 25.1 µM [fluorescent, partial curve]"
COC(=O)CC(=O)CSc1nc2c(cc1C#N)CCCCC2,–,"inconclusive: 20 µM [inhibitor, partial curve]"
COc1cccc(Nc2ncc3nc(-c4cn(C)c5ccccc45)c(=O)n(C[C@H]4CCCO4)c3n2)c1,–,"inconclusive: 3.16 µM [inhibitor, partial curve]"
COc1cc(CCC(=O)N2CCN(c3ccc(N4CCOCC4)nn3)CC2)cc(OC)c1OC,–,"inconclusive: 25.1 µM [inhibitor, partial curve]"
O=C(C1CCN(c2ccc(N3CCOCC3)nn2)CC1)N1CCN(c2ccc(F)cc2)CC1,–,"inconclusive: 20 µM [fluorescent, side channel, single point]"
